Target: His-tagged human proliferating cell nuclear antigen with an N-terminal PKA site (homotrimer) (human, UniProt P12004)
Assay: SEC-MALS

UniProt P12004, sequence (P12004 whole entry): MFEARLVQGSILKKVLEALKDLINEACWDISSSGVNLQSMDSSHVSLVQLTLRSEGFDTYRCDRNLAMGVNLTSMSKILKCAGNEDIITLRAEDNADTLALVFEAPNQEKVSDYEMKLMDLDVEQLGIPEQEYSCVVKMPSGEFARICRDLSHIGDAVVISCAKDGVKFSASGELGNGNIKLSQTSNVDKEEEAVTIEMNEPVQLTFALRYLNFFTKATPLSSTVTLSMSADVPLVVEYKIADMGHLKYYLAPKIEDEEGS

stoichiometry N: 1 LigI per PCNA trimer
B1: His-tagged wild type DNA ligase I (Full-size), not labelled (enzyme)
chain: not shown

Reference: paper PMC8727043 (Journal of molecular biology, 2020)
